According to US20050089932A1 (AVIDIA RESEARCH INSTITUTE, published 2005):

Molecular target: T1, human IgE (human, UniProt P01854-1 1-428)
T1 construct: Immobilized on plates or on a CM5 chip; variable regions and light chain not described
T1 chain (looked up): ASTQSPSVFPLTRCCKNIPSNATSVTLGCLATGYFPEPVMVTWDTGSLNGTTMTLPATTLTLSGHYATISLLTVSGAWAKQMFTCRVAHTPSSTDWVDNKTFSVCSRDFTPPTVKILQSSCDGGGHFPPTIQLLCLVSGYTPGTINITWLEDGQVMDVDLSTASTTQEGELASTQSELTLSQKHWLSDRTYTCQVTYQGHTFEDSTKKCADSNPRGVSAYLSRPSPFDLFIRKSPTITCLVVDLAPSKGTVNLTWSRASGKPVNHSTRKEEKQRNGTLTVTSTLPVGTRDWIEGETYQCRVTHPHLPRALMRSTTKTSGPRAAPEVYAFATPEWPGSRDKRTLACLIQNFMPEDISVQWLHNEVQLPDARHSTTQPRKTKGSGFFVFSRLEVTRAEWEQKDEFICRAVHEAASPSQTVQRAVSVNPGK
Experiment: Biacore, human IgE on CM5 chip

Kd: 150 nM
B1: IgE-1.23.23 (designed binder)
chain: CPAGQFRCENGRCLPPPWRCDGVNDCEDNSDEAGCGDSHILPFSTPGPSTCPANEFQCRNSSTCIPRRWLCDGDDDCGDGSDETGCSAPASEPPGSLCPAGQFRCENGRCLPPPWRCDGVNDCEDNSDEAGCGDSHILPFSTPGPSTCPANEFQCRNSSTCIPRRWLCDGDDDCGDGSDETGCSAPASEPPGSL
